The list shows a part of the results.
B1: PhoQ; a variant is named by its letters at X, in order, P23837 (parent)
chain: MKKLLRLFFPLSLRVRFLLATAAVVLVLSLAYGMVALIGYSVSFDKTTFRLLRGESNLFYTLAKWENNKLHVELPENIDKQSPTMTLIYDENGQLLWAQRDVPWLMKMIQPDWLKSNGFHEIEADVNDTSLLLSGDHSIQQQLQEVREDDDDAEMTHSVAVNVYPATSRMPKLTIVVVDTIPVELKSSYMVWSWFIYVLSANLLLVIPLLWVAAWWSLRPIEALAKEVRELEEHNRELLNPATTRELTSLVRNLNRLLKSERERYDKYRTTLTDLTHSLKTPLXXLQXXLRSLRSEKMSVSDAEPVMLEQISRISQQIGYYLHRASMRGGTLLSRELHPVAPLLDNLTSALNKVYQRKGVNISLDISPEISFVGEQNDFVEVMGNVLDNACKYCLEFVEISARQTDEHLYIVVEDDGPGIPLSKREVIFDRGQRVDTLRPGQGVGLAVAREITEQYEGKIVAGESMLGGARMEVIFGRQHSAPKDE

Variants of: B1
Assay: enrichment ratio after two sorts for PhoP signalling (ratio (wild type AVST 3.29)); higher = more functional
Conditions: with PhoP (E. coli)

| Variant | enrichment ratio |
| --- | --- |
| APWW | ≤ 0.25 |
| FEYI | ≤ 0.25 |
| DMEF | ≤ 0.25 |
| YPFR | ≤ 0.25 |
| LVNV | ≤ 0.25 |
| QNDS | ≤ 0.25 |
| QMKF | ≤ 0.25 |
| LNYQ | ≤ 0.25 |
| QDKE | ≤ 0.25 |
| FISS | ≤ 0.25 |
| ANLR | 8.82 |
| NSCW | ≤ 0.25 |
| CPDF | ≤ 0.25 |
| EGNC | ≤ 0.25 |
| ASQV | 1.45 |
| PAQQ | ≤ 0.25 |
| SNCM | 11.2 |
| MSGV | 13.8 |
| VSEF | ≤ 0.25 |
| RVWC | ≤ 0.25 |
| AQFT | ≤ 0.25 |
| SWMD | ≤ 0.25 |
| YCND | ≤ 0.25 |
| NTNH | ≤ 0.25 |

| Variant | enrichment ratio |
| --- | --- |
| LSEA | ≤ 0.25 |
| VNQC | ≤ 0.25 |
| FDQK | ≤ 0.25 |
| NMGL | ≤ 0.25 |
| PWIH | ≤ 0.25 |
| TYDH | ≤ 0.25 |
| ICVN | ≤ 0.25 |
| VQTC | ≤ 0.25 |
| HFHT | ≤ 0.25 |
| WAER | ≤ 0.25 |
| LDVY | ≤ 0.25 |
| HFMW | ≤ 0.25 |
| GQTW | ≤ 0.25 |
| TLYT | ≤ 0.25 |
| LFNC | ≤ 0.25 |
| EIYD | ≤ 0.25 |
| HGES | ≤ 0.25 |
| SVGV | ≤ 0.25 |
| FFCE | ≤ 0.25 |
| STGF | 11.4 |
| NNKF | ≤ 0.25 |
| NPTL | ≤ 0.25 |
| FSYP | ≤ 0.25 |
| EMRM | ≤ 0.25 |

| Variant | enrichment ratio |
| --- | --- |
| FENR | ≤ 0.25 |
| FPPA | ≤ 0.25 |
| TQTY | 17.5 |
| WSSY | ≤ 0.25 |
| NNIK | ≤ 0.25 |
| GGRL | ≤ 0.25 |
| MLAS | 1.4 |
| KCDL | ≤ 0.25 |
| YDSG | ≤ 0.25 |
| WRVM | ≤ 0.25 |
| AHLY | 3.97 |
| REVF | ≤ 0.25 |
| RKNF | ≤ 0.25 |
| REYA | ≤ 0.25 |
| HWNK | ≤ 0.25 |
| PDCN | ≤ 0.25 |
| TGIA | ≤ 0.25 |
| GWGN | ≤ 0.25 |
| MTKK | ≤ 0.25 |
| MAWD | ≤ 0.25 |
| FGCA | ≤ 0.25 |
| AGYS | ≤ 0.25 |
| ARPM | ≤ 0.25 |
| VRAC | ≤ 0.25 |

| Variant | enrichment ratio |
| --- | --- |
| TGIQ | ≤ 0.25 |
| VISM | ≤ 0.25 |
| EYNC | ≤ 0.25 |
| MDKG | ≤ 0.25 |
| QHQS | ≤ 0.25 |
| SANA | ≤ 0.25 |
| RWEP | ≤ 0.25 |
| LYYK | ≤ 0.25 |
| TKDF | ≤ 0.25 |
| QQGD | ≤ 0.25 |
| YYEY | ≤ 0.25 |
| MKPY | ≤ 0.25 |
| KSLT | ≤ 0.25 |
| FRAM | ≤ 0.25 |
| WAIW | ≤ 0.25 |
| HWSQ | ≤ 0.25 |
| DWES | ≤ 0.25 |
| GWNW | ≤ 0.25 |
| IIQS | ≤ 0.25 |
| IYSE | ≤ 0.25 |
| VNNN | ≤ 0.25 |
| DNII | ≤ 0.25 |
| DRAL | ≤ 0.25 |
| IVHS | ≤ 0.25 |

| Variant | enrichment ratio |
| --- | --- |
| IWQM | ≤ 0.25 |
| AVPH | ≤ 0.25 |
| HWTK | ≤ 0.25 |
| NRCS | ≤ 0.25 |
| KMYQ | ≤ 0.25 |
| MNCD | ≤ 0.25 |
| TISH | 10.4 |
| NHQA | ≤ 0.25 |
| MESP | ≤ 0.25 |
| TLLG | 0.286 |
| DAAG | ≤ 0.25 |
| LLAD | ≤ 0.25 |
| DWHW | ≤ 0.25 |
| QDCK | ≤ 0.25 |
| QQAM | ≤ 0.25 |
| YSCN | ≤ 0.25 |
| CCHN | ≤ 0.25 |
| MFCE | ≤ 0.25 |
| RNSM | ≤ 0.25 |
| WDAY | ≤ 0.25 |
| TGDM | ≤ 0.25 |
| ATFN | ≤ 0.25 |
| GCVG | ≤ 0.25 |
| FRQG | ≤ 0.25 |

| Variant | enrichment ratio |
| --- | --- |
| LVYT | ≤ 0.25 |
| TRTC | ≤ 0.25 |
| MCQS | ≤ 0.25 |
| MCVC | ≤ 0.25 |
| VTPP | ≤ 0.25 |
| TGWW | ≤ 0.25 |
| AFQY | ≤ 0.25 |
| MVNI | ≤ 0.25 |
| NESF | ≤ 0.25 |
| DGIA | ≤ 0.25 |
| WGSP | ≤ 0.25 |
| YFVP | ≤ 0.25 |
| FAVK | ≤ 0.25 |
| YICM | 0.373 |
| MMMI | ≤ 0.25 |
| ASSI | 15.8 |
| GPPE | ≤ 0.25 |
| HGTT | ≤ 0.25 |
| NNLI | ≤ 0.25 |
| RNKC | ≤ 0.25 |
| AYGP | ≤ 0.25 |
| PRLI | ≤ 0.25 |
| DWFT | ≤ 0.25 |
| VHKM | ≤ 0.25 |

| Variant | enrichment ratio |
| --- | --- |
| HHNW | ≤ 0.25 |
| RTHC | ≤ 0.25 |
| RYHT | ≤ 0.25 |
| QSSM | 15.9 |
| SWCM | ≤ 0.25 |
| QELW | ≤ 0.25 |
| ECPP | ≤ 0.25 |
| KHLL | ≤ 0.25 |
| GHNP | ≤ 0.25 |
| TTAS | 7.45 |
| RFCD | ≤ 0.25 |
| EVVR | ≤ 0.25 |
| QTTK | ≤ 0.25 |
| ECNA | ≤ 0.25 |
| TDDV | ≤ 0.25 |
| RSAG | ≤ 0.25 |
| EWWL | ≤ 0.25 |
| GAMI | 18.9 |
| EKFY | ≤ 0.25 |
| DQIL | ≤ 0.25 |
| NDSG | ≤ 0.25 |
| WHTH | ≤ 0.25 |
| QTRE | ≤ 0.25 |
| IDYY | ≤ 0.25 |

| Variant | enrichment ratio |
| --- | --- |
| VHPK | ≤ 0.25 |
| FQTM | ≤ 0.25 |
| NDIN | ≤ 0.25 |
| ILYD | ≤ 0.25 |
| TQQM | 17.5 |
| SVHR | ≤ 0.25 |
| LQWH | ≤ 0.25 |
| VYAF | ≤ 0.25 |
| RYCM | ≤ 0.25 |
| RDGS | ≤ 0.25 |
| EYCK | ≤ 0.25 |
| RAFW | ≤ 0.25 |
| TWDS | ≤ 0.25 |
| KFDR | ≤ 0.25 |
| WFPF | ≤ 0.25 |
| LEMD | ≤ 0.25 |
| PSSF | ≤ 0.25 |
| GKPI | ≤ 0.25 |
| NEKP | ≤ 0.25 |
| RHYY | ≤ 0.25 |
| YPEH | ≤ 0.25 |
| GSET | ≤ 0.25 |
| TILT | 2.41 |
| SEQH | 6.74 |

| Variant | enrichment ratio |
| --- | --- |
| DCAL | ≤ 0.25 |
| VEKH | ≤ 0.25 |
| QQIL | ≤ 0.25 |
| PPDS | ≤ 0.25 |
| VMWR | ≤ 0.25 |
| VYAR | ≤ 0.25 |
| WAID | ≤ 0.25 |
| YPKQ | ≤ 0.25 |
| NFQC | ≤ 0.25 |
| ADRE | ≤ 0.25 |
| FIRH | ≤ 0.25 |
| WFRN | ≤ 0.25 |
| YCNF | ≤ 0.25 |
| DADD | ≤ 0.25 |
| KTFI | ≤ 0.25 |
| LTMY | ≤ 0.25 |
| GQHR | ≤ 0.25 |
| NMEQ | ≤ 0.25 |
| VMGC | ≤ 0.25 |
| TAKF | ≤ 0.25 |
| GHYI | ≤ 0.25 |
| AILH | 3.54 |
| SWKK | ≤ 0.25 |
| YFMT | ≤ 0.25 |

| Variant | enrichment ratio |
| --- | --- |
| GMQN | ≤ 0.25 |
| KYMW | ≤ 0.25 |
| WVYF | 1.23 |
| SRGI | ≤ 0.25 |
| PTNE | ≤ 0.25 |
| IMGI | ≤ 0.25 |
| WYVN | ≤ 0.25 |
| PMPG | ≤ 0.25 |
| ETQI | ≤ 0.25 |
| DKYH | ≤ 0.25 |
| KDKR | ≤ 0.25 |
| PGCV | ≤ 0.25 |
| GHCQ | ≤ 0.25 |
| WILG | ≤ 0.25 |
| MHNI | ≤ 0.25 |
| PYLL | ≤ 0.25 |
| TYHF | ≤ 0.25 |
| FWRN | ≤ 0.25 |
| GTER | ≤ 0.25 |
| ITYT | ≤ 0.25 |
| VEFH | ≤ 0.25 |
| WSSC | 0.528 |
| TAWA | 3.58 |
| DCTA | ≤ 0.25 |

| Variant | enrichment ratio |
| --- | --- |
| DALK | ≤ 0.25 |
| SQLC | 6.15 |
| DWKR | ≤ 0.25 |
| HQWV | ≤ 0.25 |
| FTKC | ≤ 0.25 |
| NKNP | ≤ 0.25 |
| QEFR | ≤ 0.25 |
| HVTY | ≤ 0.25 |
| QYNA | ≤ 0.25 |
| KAKT | ≤ 0.25 |
| MTVE | ≤ 0.25 |
| RLNV | ≤ 0.25 |
| KALI | ≤ 0.25 |
| VPFP | ≤ 0.25 |
| MYQY | ≤ 0.25 |
| GAGR | ≤ 0.25 |
| TANA | 15.9 |
| EPIF | ≤ 0.25 |
| TDNY | 1.07 |
| PQIK | ≤ 0.25 |
| QMWW | ≤ 0.25 |
| GKHK | ≤ 0.25 |
| VGIG | ≤ 0.25 |
| TEHS | 18.1 |

| Variant | enrichment ratio |
| --- | --- |
| DYFF | ≤ 0.25 |
| MGKN | ≤ 0.25 |
| IKYP | ≤ 0.25 |
| RVAK | ≤ 0.25 |
| ILRT | ≤ 0.25 |
| IWCS | ≤ 0.25 |
| DVSI | ≤ 0.25 |
| ADPN | ≤ 0.25 |
| GKDH | ≤ 0.25 |
| MVEP | ≤ 0.25 |
| HNYN | ≤ 0.25 |
| AYFV | ≤ 0.25 |
| DIEM | ≤ 0.25 |
| ITKM | ≤ 0.25 |
| PKPV | ≤ 0.25 |
| HKCH | ≤ 0.25 |
| ESGQ | ≤ 0.25 |
| ITLP | ≤ 0.25 |
| YWMF | ≤ 0.25 |
| ETLW | ≤ 0.25 |
| LRVE | ≤ 0.25 |
| AGGG | ≤ 0.25 |
| FDFH | ≤ 0.25 |
| YMNI | ≤ 0.25 |

| Variant | enrichment ratio |
| --- | --- |
| FHVS | ≤ 0.25 |
| SQLE | 16.5 |
| GNAP | ≤ 0.25 |
| LSNR | ≤ 0.25 |
| TRKR | ≤ 0.25 |
| NRCT | ≤ 0.25 |
| YFYF | ≤ 0.25 |
| DPIH | ≤ 0.25 |
| MDCC | ≤ 0.25 |
| LMFQ | ≤ 0.25 |
| GHKL | ≤ 0.25 |
| KLFG | ≤ 0.25 |
| AWYD | ≤ 0.25 |
| KMTM | ≤ 0.25 |
| YMQH | ≤ 0.25 |
| YVYL | ≤ 0.25 |
| NKYF | ≤ 0.25 |
| KKAW | ≤ 0.25 |

From a collection of fitness landscapes (doi:10.1126/science.1257360)
